Assay results as given in PubChem BioAssay AID624170 (National Center for Advancing Translational Sciences (NCATS), 2012).
Out of some 410,000 compounds screened, about 850 (0.21%) were called active. The inconclusive results got no clear call from the source; some entries with a clear call stand among them for comparison. Calls come from the whole dose curve; as a rule, active = well fitted inhibition curve with a large enough effect; inconclusive = small, poorly fitted or top-dose-only effect, or another doubt; inactive = no such curve, though single readings can be large or run the other way. Potencies of inconclusive entries are doubtful fits and often do not repeat.

molecular target: Glutaminase kidney isoform, mitochondrial (Homo sapiens) (UniProt O94925); assay: qHTS for Inhibitors of Glutaminase (GLS); conditions: GLS enzymatic activity, qHTS titration; series mostly up to 45.5 µM; activity change, negative = inhibition: at the top concentration
Sequence of UniProt O94925 (O94925 whole entry, looked up, canonical isoform): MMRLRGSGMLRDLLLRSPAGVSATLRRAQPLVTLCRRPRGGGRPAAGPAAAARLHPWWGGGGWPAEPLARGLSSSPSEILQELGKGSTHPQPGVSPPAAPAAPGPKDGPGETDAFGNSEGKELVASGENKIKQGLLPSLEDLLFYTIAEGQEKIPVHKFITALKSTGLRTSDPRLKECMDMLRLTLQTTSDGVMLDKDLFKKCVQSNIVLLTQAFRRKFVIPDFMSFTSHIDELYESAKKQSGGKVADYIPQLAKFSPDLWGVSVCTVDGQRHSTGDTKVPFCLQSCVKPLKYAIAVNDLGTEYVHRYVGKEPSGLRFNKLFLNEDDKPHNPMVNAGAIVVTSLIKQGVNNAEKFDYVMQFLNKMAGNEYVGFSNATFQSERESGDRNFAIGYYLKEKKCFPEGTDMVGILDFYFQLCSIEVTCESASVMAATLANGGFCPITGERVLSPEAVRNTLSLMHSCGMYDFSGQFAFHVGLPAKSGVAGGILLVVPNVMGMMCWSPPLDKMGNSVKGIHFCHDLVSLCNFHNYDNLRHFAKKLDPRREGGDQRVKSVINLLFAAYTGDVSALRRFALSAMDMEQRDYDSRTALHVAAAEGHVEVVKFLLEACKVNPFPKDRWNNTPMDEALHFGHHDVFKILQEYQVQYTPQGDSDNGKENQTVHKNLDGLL
Outline: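 Enzyme dispensed in phosphate buffer (45 mM, pH 8.2, 0.02% Tween-20), compounds pinned in, then 1 mM L-glutamine solution and the glutamate oxidase–HRP–Amplex Red mix added; fluorescence read immediately and again after 30 min at room temperature.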
% is set by controls: 0 for no effect and ±100 for the full control effect; potency is the fitted concentration of half-maximal effect; tags give direction and shape of the fitted curve.

Potency, inconclusive:
COc1ccc(-c2cc(NC(C)=O)c3ncc(-c4ccc(OC)c(OC)c4)n3c2)cc1OC 17.8 µM [inhibitor, single point]
O=C1NC[C@H](Cc2ccc(O)cc2)N(CCc2cc(C(F)(F)F)cc(C(F)(F)F)c2)C1=O 2.82 µM [inhibitor, partial curve, poor fit]
CCOc1ccc(Nc2nc(-c3cccnc3)cs2)cc1 11.2 µM [inhibitor, partial curve]
COC(=O)c1sccc1NC(=O)C1C2C=CC(O2)C1C(=O)O (configuration not stated) 35.5 µM [inhibitor, single point]
NC(=O)CSC1=Nc2ccccc2C2=NC(CC(=O)NCc3cccs3)C(=O)N12 (configuration not stated) 5.62 µM [inhibitor, full curve, poor fit]
COc1cc(C2C(C#N)=C(N)OC3=C2C(=O)CCC3)c([N+](=O)[O-])cc1OC (configuration not stated) 20 µM [inhibitor, partial curve, poor fit]
O=C(CN1C(=O)c2cccc([N+](=O)[O-])c2C1=O)N1CCN(c2ccc(F)cc2)CC1 35.5 µM [inhibitor, single point]
CC(=O)Nc1ccc(NC(=O)/C=C/c2ccc3c(c2)OCO3)cc1 11.2 µM [inhibitor, partial curve]
Cc1ccc(-c2ccc(/C=C3\SC(N4CCOCC4)=NC3=O)o2)cc1 35.5 µM [inhibitor, single point]
O=C(NNc1cccc(Cl)n1)Nc1cccc(C(F)(F)F)c1 14.1 µM [inhibitor, partial curve]
Cc1ccc(/C=C/C(=O)NCc2ccc3c(c2)OCO3)o1 14.1 µM [inhibitor, partial curve, poor fit]
COc1ccc(OCC(O)Cn2c(=N)n(CCN3CCCCC3)c3ccccc32)cc1 (configuration not stated) 35.5 µM [inhibitor, single point]
N#Cc1c2c(c(-c3ccccc3Cl)[nH]c1=S)CCCC2 11.2 µM [inhibitor, single point]
COc1ccc(Cl)cc1NC(=O)COC(=O)c1cc(NS(=O)(=O)c2cccs2)ccc1O 5.62 µM [inhibitor, partial curve]
COc1ccc(O)c(C(=O)C2c3ccccc3C(=O)N2c2ccc(C)cc2)c1 (configuration not stated) 25.1 µM [inhibitor, single point]
Cc1ccc2oc(=O)c(/C=C(\O)CC(C)C)nc2c1 35.5 µM [inhibitor, single point]
O=C(NN=C1CCCCCC1)c1cc2ccccc2cc1O 35.5 µM [inhibitor, single point]
Oc1cc2c(c(Cl)c1O)CCNCC2c1ccccc1 (configuration not stated) 35.5 µM [inhibitor, single point]
CN(C)c1ccc(NC(=O)CSC2=Nc3ccccc3C3=NC(CC(=O)NCc4ccc5c(c4)OCO5)C(=O)N23)cc1 (configuration not stated) 14.1 µM [inhibitor, partial curve, poor fit]
Oc1ccc(NCc2ccccc2OCc2ccccc2Cl)cc1 25.1 µM [inhibitor, single point]
COc1cccc(NC(=O)c2cn(C)c(=O)c3cc(OC)c(OC)cc23)c1 35.5 µM [inhibitor, single point]
N#C/C(=C\c1ccc(-c2ccc(Cl)c(C(=O)O)c2)o1)c1nc2ccccc2[nH]1 35.5 µM [inhibitor, single point]
CCN(CC)Cc1cc(C(C)(C)C)cc(N2CCOCC2)c1O 35.5 µM [inhibitor, single point]
O=C1S/C(=C\c2ccc(N3CCOCC3)o2)C(=O)N1Cc1c(F)cccc1Cl 12.6 µM [inhibitor, single point]
Cc1cc(O)c2c(c1)C(=O)[C@@]13Oc4c5c(c(O)c6c(O)cc(C)cc46)C(=O)C[C@H](O)[C@H]5[C@@H]1[C@@H](O)CC(=O)C3=C2O 20 µM [inhibitor, single point]
Cc1ccc(-c2nc(C(=O)NC3CCCCCC3)no2)cc1 25.1 µM [inhibitor, single point]
Cc1ccc(/C=C2\S/C(=N/S(=O)(=O)c3cccs3)NC2=O)cc1 25.1 µM [inhibitor, single point]
COc1cc(OC)c(OC)cc1/C=C1\Oc2cc(OCC(=O)N3Cc4ccccc4C[C@H]3C(=O)O)ccc2C1=O 35.5 µM [inhibitor, single point]

Potency, active:
COc1cccc(-n2c(SCC(=O)NCCC3=CCCCC3)nc3n[nH]c(C)c3c2=N)c1 20 µM

Activity change, negative = inhibition, inactive:
O=C(COC(=O)CCc1nc2ccccc2c(=O)[nH]1)Nc1ccc(Cl)cn1 33.6%
Cc1ccc(N2C(=O)C3C4C=CC(CC4)C3C2=O)cc1[N+](=O)[O-] (configuration not stated) -9.59%
CN(CC(=O)NCC(=O)Nc1ccc(F)c(F)c1F)C1CCS(=O)(=O)C1 (configuration not stated) -2.8%
CCn1nc(C)c2c(-c3ccccc3)cc(=O)n(C(C)C(=O)NCCc3ccc(Cl)cc3)c21 (configuration not stated) 6.62%
O=C(CN(Cc1ccccc1)C(=O)CSc1nnc(COc2ccccc2)o1)NC1CCCC1 -7.53%
C=CCNC(=O)N1CCc2[nH]c3ccc(F)cc3c2C1 5.11%
COc1cccc(-c2nc(N3CCN(C)CC3)c3ccccc3n2)c1O 35%
O=C(NS(=O)(=O)Nc1ccccc1)C1=C(N2CCCC2)COC1=O 4.76%
CCC(=O)C1=C(c2ccc(F)cc2)N(C(=O)CC)n2c(nnc2C2CCCCC2)S1 9.17%
CCCCCCn1c(-c2cccs2)n[nH]c1=S 2.11%
O=c1cc(CN2CCN(C/C=C/c3ccccc3)CC2)c2cc(O)ccc2o1 26.9%
COc1ccc(OC)c(C2CC(=O)c3c([nH]c(C(=O)OCC4CCCO4)c3C)C2)c1 (configuration not stated) -4.3%
Cc1noc(C)c1COc1ccccc1C(=O)N(C)CC(=O)Nc1ccc(F)cc1 12%
